Test results reported in PubChem BioAssay AID504339 (National Center for Advancing Translational Sciences (NCATS), 2011).
Out of some 390,000 compounds screened, about 17,000 (4.4%) were called active. The inconclusive results got no clear call from the source; some entries with a clear call stand among them for comparison. Calls come from the whole dose curve; as a rule, active = well fitted inhibition curve with a large enough effect; inconclusive = small, poorly fitted or top-dose-only effect; inactive = no such curve, though single readings can be large or run the other way. A potency beside an inconclusive call is a rough fit, not a confirmed value.

The molecules below were run against Lysine-specific demethylase 4A (Homo sapiens) (UniProt O75164) (assay: qHTS Assay for Inhibitors of JMJD2A-Tudor Domain). Details: AlphaScreen JMJD2A-Tudor / H3K4me3 peptide binding; activity change, negative = inhibition: at 114 µM (top of the series).
% is set by controls: 0 for no effect and ±100 for the full control effect; potency is the fitted concentration of half-maximal effect; tags give direction and shape of the fitted curve.
Note: nearly all actives have a fitted effect of over 50% in size.

Sequence of UniProt O75164 (O75164 whole entry, looked up, the tested form may be a part): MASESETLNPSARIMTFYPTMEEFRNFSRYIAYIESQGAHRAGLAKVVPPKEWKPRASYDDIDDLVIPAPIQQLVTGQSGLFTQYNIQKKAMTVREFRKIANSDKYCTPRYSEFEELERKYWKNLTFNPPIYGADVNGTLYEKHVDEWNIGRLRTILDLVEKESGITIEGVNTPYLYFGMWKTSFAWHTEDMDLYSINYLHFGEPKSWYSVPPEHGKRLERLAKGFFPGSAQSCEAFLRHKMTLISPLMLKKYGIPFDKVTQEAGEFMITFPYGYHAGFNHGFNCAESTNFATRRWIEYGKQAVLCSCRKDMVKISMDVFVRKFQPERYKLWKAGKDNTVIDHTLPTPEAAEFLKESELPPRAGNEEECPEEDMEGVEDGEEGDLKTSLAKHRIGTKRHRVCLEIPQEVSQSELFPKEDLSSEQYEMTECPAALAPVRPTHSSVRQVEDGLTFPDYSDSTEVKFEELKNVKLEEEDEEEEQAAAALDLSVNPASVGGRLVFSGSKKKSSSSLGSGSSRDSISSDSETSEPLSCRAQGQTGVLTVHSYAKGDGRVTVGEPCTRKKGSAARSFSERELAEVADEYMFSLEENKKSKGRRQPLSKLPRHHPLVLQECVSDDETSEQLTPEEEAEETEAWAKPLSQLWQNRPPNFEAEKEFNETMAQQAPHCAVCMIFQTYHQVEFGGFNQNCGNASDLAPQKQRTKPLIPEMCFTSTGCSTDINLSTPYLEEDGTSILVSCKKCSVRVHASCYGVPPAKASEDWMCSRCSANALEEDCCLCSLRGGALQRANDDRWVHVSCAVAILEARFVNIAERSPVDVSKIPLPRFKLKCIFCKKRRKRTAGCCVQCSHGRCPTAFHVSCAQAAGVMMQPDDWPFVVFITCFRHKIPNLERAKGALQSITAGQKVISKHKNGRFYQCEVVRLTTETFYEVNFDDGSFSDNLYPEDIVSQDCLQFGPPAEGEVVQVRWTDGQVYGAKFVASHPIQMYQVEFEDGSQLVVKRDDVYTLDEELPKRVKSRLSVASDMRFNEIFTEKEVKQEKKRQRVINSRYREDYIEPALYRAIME

Compound	activity change, negative = inhibition	Potency
CC1(C)Cc2nc3sc4c(N(CCO)CCO)nnnc4c3cc2CO1	inactive: -21.1%	
CCOC(=O)CC(NS(=O)(=O)c1ccc2[nH]c3c(c2c1)CCCC3)c1ccccc1Cl (stereo not drawn)		active: 35.5 µM
CCCCOc1ccc(CSc2nc(C)[nH]c2[N+](=O)[O-])cc1[N+](=O)[O-]		inconclusive: 50.1 µM [inhibitor, partial curve]
O=C(CSc1ccc(-c2ccccn2)nn1)NCc1ccc(Cl)cc1		inconclusive: 44.7 µM [inhibitor, single point]
Cc1ccc(S(=O)(=O)Nc2cccc3ccc[n+](C)c23)cc1		active: 50.1 µM
COC(=O)C1=C(O)/C(=C\c2ccc(CNS(=O)(=O)c3ccccc3)o2)N=C1C		inconclusive: 28.2 µM [inhibitor, single point]
O=C(Nc1ccccc1)c1nnsc1S(=O)(=O)c1ccc(Cl)cc1		inconclusive: 56.2 µM [inhibitor, partial curve]
CCOc1ccc(S(=O)(=O)Nc2cc(SCC(=O)O)c(O)c3ccccc23)cc1		active: 22.4 µM
CC(=O)CCc1oc2ccc(NC(C)=O)cc2c1-c1ccc(C)o1		inconclusive: 79.4 µM [inhibitor, single point]
CCOc1c(Cl)cc(Cl)cc1CNCCNCCO		inconclusive: 63.1 µM [inhibitor, partial curve]
CCN(CC)CCN1C(=O)C(O)=C(C(=O)c2cccs2)C1c1ccccn1 (stereo not drawn)		inconclusive: 79.4 µM [inhibitor, partial curve]
C=CCN=C1N[C@@H](c2cccc(C(F)(F)F)c2)C(C(=O)OC)=C(C)N1CC		inconclusive: 22.4 µM [inhibitor, single point]
Cc1nn(CC(=O)Nc2ccc3c(c2)CCC3)c(C)c1[N+](=O)[O-]	inactive: -6.77%	
COc1ccc(OCC(O)CN(CC(O)COc2ccc(OC)cc2)c2cccc(O)c2)cc1 (stereo not drawn)		inconclusive: 39.8 µM [inhibitor, full curve]
C(=N\n1cnnc1)/c1cn(Cc2ccccc2)c2ccccc12		inconclusive: 79.4 µM [inhibitor, partial curve]
COc1cc(Cl)cc(C2NC(=S)NC(c3ccccc3)=C2C(C)=O)c1OCC(=O)O (stereo not drawn)		inconclusive: 50.1 µM [inhibitor, partial curve]
O=C(NCCCN1CCCC1=O)c1ccc2c(=O)n(Cc3ccco3)c(=S)[nH]c2c1		inconclusive: 3.55 µM [inhibitor, single point]
O=C(c1ccco1)N1CCN(C(=O)c2ccc(-c3ccc(Cl)cc3)o2)CC1		inconclusive: 56.2 µM [inhibitor, partial curve]
OC(CNCc1ccco1)COc1ccccc1 (stereo not drawn)	inactive: -19.6%	
O=C(O)/C=C/c1ccc([N+](=O)[O-])o1		active: 35.5 µM
O=c1c2ccccc2nc(COc2ccccc2)n1/N=C/c1ccc(O)c(O)c1		inconclusive: 50.1 µM [inhibitor, partial curve]
CCc1ccc(O)c(CNCCNCc2cc(CC)ccc2O)c1		inconclusive: 10 µM [inhibitor, full curve]

Compound	activity change, negative = inhibition	Potency
Cc1ccc(Nc2nc(-c3sc(NC(=O)c4ccccc4)nc3C)cs2)cc1		inconclusive: 79.4 µM [inhibitor, single point]
O=C(COC(=O)c1c[nH]c(=O)[nH]c1=O)Nc1ccccc1F		inconclusive: 28.2 µM [inhibitor, partial curve]
CCN(CC)c1ccc(C(=O)OCC(=O)Nc2cc(C)on2)cc1	inactive: -19.5%	
CCn1c(CSc2nc3ccccc3s2)nnc1SCC(=O)c1ccc(Cl)cc1		inconclusive: 4.47 µM [inhibitor, single point]
O=C(NCc1ccccc1)C(c1ccc(F)cc1)N(C(=O)c1csnn1)c1ccccc1 (stereo not drawn)		inconclusive: 0.708 µM [inhibitor, full curve]
COc1cc(C2c3c([nH]c(=O)[nH]c3=O)Nc3ccc4ccccc4c32)ccc1O (stereo not drawn)		inconclusive: 8.91 µM [inhibitor, full curve, poor fit]
COc1cc(CNCCO)cc(Cl)c1OCc1ccc(Cl)cc1Cl		inconclusive: 100 µM [inhibitor, single point]
COCCCNC(=O)c1c[nH]c2ccc(S(=O)(=O)N3CCC(C)CC3)cc2c1=O	inactive: -1.37%	
COc1cc(/C=C/C(=O)c2cccc([N+](=O)[O-])c2)cc(OC)c1OC		inconclusive: 56.2 µM [inhibitor, single point]
O=C(CSc1ccc(-c2ccccn2)nn1)NCc1ccccc1	inconclusive: -100% [inhibitor]	
Cc1cccc(NS(=O)(=O)c2ccc(Br)s2)n1	inactive: -11.3%	
CC(=O)c1ccc(S(=O)(=O)Nc2cccc(-c3ccc(N4CCCCCC4)nn3)c2)cc1	inactive: -27.2%	
N#Cc1nc(-c2ccc(F)cc2)oc1N1CCCCC1		inconclusive: 56.2 µM [inhibitor, partial curve, poor fit]
CC(Sc1nn(-c2ccc(F)cc2)c(=S)s1)C(=O)c1c(N)n(C)c(=O)n(C)c1=O (stereo not drawn)	inactive: -19.3%	
N[C@H](CSCc1ccccc1)C(=O)Nc1ccc([N+](=O)[O-])cc1		inconclusive: 8.91 µM [inhibitor, full curve, poor fit]
Cc1nn(Cc2ccc(F)cc2)c2sc(C(=O)Nc3ccc(N4CCOCC4)cc3N3CCOCC3)cc12		inconclusive: 12.6 µM [inhibitor, full curve]
CCOc1ccc(NC(=O)NCc2c(-n3cccc3)sc3c2CCCC3)cc1		inconclusive: 44.7 µM [inhibitor, partial curve]
CC1(C)CC(=O)C2=C(C1)N(N1CCOCC1)C(N)=C(C#N)C2c1cccs1 (stereo not drawn)		inconclusive: 89.1 µM [inhibitor, single point]
COc1ccc(-c2csc(N3CCN(C(=O)c4ccccc4)CC3)n2)cc1		inconclusive: 39.8 µM [inhibitor, partial curve]
N#Cc1c(NC(NC(=O)c2ccco2)C(=O)c2ccccc2)sc2c1CCCC2 (stereo not drawn)		active: 50.1 µM
Cc1ccc(C(=O)N/C(=C\c2cn(C)c3ccccc23)C(=O)NCCN2CCOCC2)cc1	inactive: -20.7%	
